Among the data in the RNAGym collection of RNA variant scans (doi:10.7554/elife.90254) are self-cleavage values, retold here.

The source gives no read counts; variants with many changes may rest on few reads.

Sequences and labels used below:
B1: LINE1-mini (parent)
chain: GGCAGAGCUCAACACAGCGUGGCAAAGUGGCUGUGGCUAGACUGCC

This data set covers variants of B1. Briefly: self-cleavage, relative activity (ratio to wild type); higher = more cleavage; in vitro, sequencing; the parent is a self-cleaving ribozyme.
For C10U A24G C37G C46G, the self-cleavage worked out at 0.03.
Take G29A G30A U32A: the self-cleavage worked out at 0.18.
As for G5A A16C G17C C31A, the figure is 0.06; as for C10U G21A G33U C42A U43A, 0.03.
For the variant G22U C23A G27U, the self-cleavage was 0.61.
Turning to A12C C18G U34G, the self-cleavage is 0.
As for G7C G21A G22A A39U, the figure is 0.11; as for C8G G19C G36U A39G, 0; as for C15G A25C C31G A41U C45U, 0.02.
Regarding C8G C15A G17C C23A A24G C46U, the self-cleavage is 0.02.
With G2U A16U U20A, the self-cleavage came to 0.03.
With C3U U20C G21U G29A, the self-cleavage came to 0.35.
As for A12C A26U C31G, the self-cleavage is 0.01.
With G2C G19A G22A, the self-cleavage worked out at 0.63.
For the variant C3A U20C U32C C46A, the self-cleavage was 0.1.
On to G17A C23U U32G, for which the self-cleavage was found to be 0.15.
As to A4G C10U A26U G30U, the self-cleavage turned out to be 0.16.
Turning to C8A U34G C42U, the self-cleavage turned out to be 0.25.
As for G5A A39C C45A, the figure is 0.04.
Take C13G G21C U43G: the self-cleavage came out at 1.91.
Regarding C3A A6G U9A G17A G29C C31A, the self-cleavage turned out to be 0.29.
As for G7U C15U C18A C31A G44C, the figure is 0.01.
Take C10U C15G G19C G36U: the self-cleavage came out at 0.03.
Regarding C10A U20G A39G G44U, the self-cleavage turned out to be 0.03.
For G2C G5A C8G U34C, the self-cleavage amounted to 0.04.
G22A G27A U34A C37U: the self-cleavage came to 0.02.
As to G2U G19C G33C, the self-cleavage stood at 0.01.
C18U G21A C45U: the self-cleavage amounted to 0.39.
The same measure for C8G G19A U38C: 0.07; for A4U U28A G36U: 0.15.
In the case of C8A G19U G35A, the self-cleavage amounted to 0.15.
Take C18U G21C G27A: the self-cleavage was 0.56.
Regarding C31A C42A C46A, the self-cleavage came to 0.01.
Turning to A6G C10A G22A, the self-cleavage is 0.01.
The same measure for G1A C3U G27U U43A: 0.69.
Regarding A25G U28G C37A, the self-cleavage amounted to 0.02.
As to C23G A25C G40A, the self-cleavage was 0.07.
G1U A11G A25C: the self-cleavage is 0.01.
In the case of C3G A24G U28G, the self-cleavage turned out to be 0.3.
Consider G1C A6U A12G, for which the self-cleavage is 0.
Regarding C8A C18U G27U U34G G40C, the self-cleavage worked out at 0.09.
As for A14G G35U C42A C45G, the self-cleavage was 0.01.
For the variant G7A A12C G17C G44C, the self-cleavage was 0.01.
Take C3G G22C G29C G40C C46U: the self-cleavage came to 0.04.
Turning to G5A G27A C31U U38G, the self-cleavage was 0.01.
Turning to G17A U20C U34G, the self-cleavage amounted to 0.
Turning to G7A C15U C23G G44U, the self-cleavage amounted to 0.18.
On to C10A U20C A26G G27U G44U, for which the self-cleavage is 0.01.
In the case of C18U G19A G21C, the self-cleavage was 0.43.
For the variant C10U G22U G35A C45A, the self-cleavage is 0.04.
Regarding G1A A14G G33U, the self-cleavage came out at 0.04.
For the variant C3U A4C A6U A25C U38G C45A, the self-cleavage was 0.02.
Turning to G5U C13G G27A G33A, the self-cleavage came to 0.09.
Take G19U G22C C45U: the self-cleavage amounted to 0.37.
For the variant G21U U28G C31U U38G, the self-cleavage came out at 0.02.
Consider G7C A11G C18U G27A, for which the self-cleavage was determined as 0.01.
With A4G G33A A41G, the self-cleavage came to 0.24.
With G1U C23A G35A C42A, the self-cleavage is 0.04.
The same measure for G2U C15G U34G G40U C45U: 0; for G19U G21A A25U: 0.76.
Take C31A U32A G36A A39C: the self-cleavage came to 0.
On to G2A G17C G33U C37G, for which the self-cleavage was found to be 0.08.
As for G1U C18G G19A, the self-cleavage came to 0.04.
As for G1A C3U C8U, the figure is 0.07.
On to U20A A25C A41G, for which the self-cleavage is 0.06.
Regarding C3U G5A A6C C23U G44U, the self-cleavage stood at 0.02.
Regarding A11U A24C A25U A41G G44U, the self-cleavage worked out at 0.01.
Consider A12C U32A A39C, for which the self-cleavage was 0.02.
Turning to G7A C8G G22A U32G U43A, the self-cleavage is 0.01.
For C23A C37A A41U, the self-cleavage stood at 0.09.
For the variant G2U C13A A16G, the self-cleavage was 0.02.
Take G22A U28A G29A G30C C31A: the self-cleavage amounted to 0.98.
Turning to G17U U20G G21C, the self-cleavage was 0.37.
As for A11U G22C G33A, the figure is 0.03; as for G7U C18G G30U G40U, 0.05; as for A6U C8U G30C, 0.48.
As for C10A U20A U38A, the figure is 0.04; as for G1A C15A G27C G36U, 0.02.
Regarding U28G G33A C42G, the self-cleavage was determined as 0.03.
In the case of G5U A25G G27C C45U, the self-cleavage came out at 0.02.
As for G17C C31U C46U, the self-cleavage came to 0.01.
For G17C C18U C31A A41U C46U, the self-cleavage worked out at 0.02.
As for G2U A12U A14C C18A U28C G29C C31A C42G, the figure is 0.
As for C18A U20A U28A C31U A39U U43G, the figure is 0; as for A14U G22A G40U A41U C42U U43G, 0.05; as for C10A G33C G36U, 0.02.
The same measure for G1A C10A G27A C37U A41C: 0.02.
On to G19U G29A C46G, for which the self-cleavage was found to be 0.07.
The same measure for G1U G2A G21U C23G C31U U38G C45A: 0.01; for U9G A14G A39U U43A: 0.02; for A25G G29A G30A C46U: 0.14.
For the variant G1U C8G G22A A24C, the self-cleavage came out at 0.02.
On to C3U A6U C13U A14U U20A G30A G33A A39U C46U, for which the self-cleavage turned out to be 0.08.
A12C A26G G27U: the self-cleavage stood at 0.
As for C13A G17A G27U, the self-cleavage was 0.14.
With C3G G7A C18U, the self-cleavage came out at 1.42.
Consider G7C G19C G35U, for which the self-cleavage was 0.
As for A6C C23G A24C A26U, the figure is 1.08; as for A11G G17C G21C, 0.04.
As to A25G A26C G30A, the self-cleavage was found to be 1.25.
A6U G17U G27C A41U: the self-cleavage was determined as 0.12.
G7A G27U G33C G44U: the self-cleavage worked out at 0.21.
As for C13G G19C C23A G33U G44C, the self-cleavage was found to be 0.01.
Turning to A11U G17A G29U G30C, the self-cleavage came to 0.03.
With C10G G22A A25U G30U C37A, the self-cleavage is 0.01.
For the variant C13G C15A G21A G27C U38A G44C, the self-cleavage came to 0.06.
Consider U9G G17U C18A G36U A41C, for which the self-cleavage was 0.16.
For U34C C37U U38C C45U, the self-cleavage stood at 0.04.
A14U U38C C42A: the self-cleavage came to 0.06.
As for A6G C8U C15U G19A A24C A39U, the self-cleavage was found to be 0.24.
Take G7U C13U G44A: the self-cleavage came to 0.17.
Take G1A C10A A12C: the self-cleavage worked out at 0.04.
On to G19U U28C C37G A41U, for which the self-cleavage came out at 0.04.
The same measure for C10G C13A G22A: 0.02; for U32G G33C G44C: 0.38; for C10U C18G G19C C45A: 0.22.
For U9G G19A G30U U34C C37U, the self-cleavage amounted to 0.01.
For the variant C3U C13U C15G A16C C18U A25C, the self-cleavage was determined as 0.11.
Turning to G1A C15A G17U C23A, the self-cleavage came to 0.06.
As for G7A U20G A41G, the figure is 0.03.
With A14G U28A G33C C46U, the self-cleavage was 0.01.
As for G5U A24C G30U A41C, the self-cleavage stood at 0.01.
As for U20A C23G G33C G44A, the figure is 0.01.
Take A11C A12G U43C: the self-cleavage was 0.05.
As to A24U C31G C46U, the self-cleavage is 0.02.
On to C3U C18U C45G, for which the self-cleavage came out at 0.13.
Turning to U32G C37A C46G, the self-cleavage amounted to 0.
For G2C A11G C31U, the self-cleavage was determined as 0.02.
As for A6C A25U G27U U32G, the self-cleavage was 0.03.
For the variant G5C A25C C45U, the self-cleavage worked out at 0.09.
As for G2U C10A C13G, the figure is 0.
Consider G2U G21U G35C, for which the self-cleavage worked out at 1.01.
In the case of G1A G7C C18A G21A, the self-cleavage came to 1.01.
Turning to A16U U28G A39G, the self-cleavage was 0.
G5C C45U C46U: the self-cleavage came to 0.04.
G1C U32A U38A G44A: the self-cleavage came out at 0.02.
As to G19A G30C U32C U43C, the self-cleavage stood at 0.05.
Consider C10A C23A C37U C42A, for which the self-cleavage was 0.01.
In the case of A14G G27U G29C C42G, the self-cleavage was 0.03.
With C3A C13A G19A, the self-cleavage came to 0.73.
For C3A A12U C13A G17C G19U A39C C42U, the self-cleavage is 0.18.
The same measure for G19C A26G U43C: 0.01.
For the variant U9C U28A C31A G33C, the self-cleavage worked out at 0.
The same measure for G27A G36C C37G: 0.11.
As for C23G G29C G30C C31A U32C, the figure is 0.1; as for A24U A26C G40U, 0.1.
For the variant G19C U32G U38G C45U, the self-cleavage turned out to be 0.03.
Turning to C15U A26G C31U, the self-cleavage was 0.05.
The same measure for C10A U32C C45G: 0.03; for U20C C31G U34C: 0.06; for G1C C3G A24C: 0.02.
Turning to U9C C18U U28A A41U, the self-cleavage was 0.06.
Take G19A G35C C46A: the self-cleavage was determined as 0.05.
As for C15G G17U C46U, the figure is 0.15.
As to A6U C10U G27U, the self-cleavage turned out to be 0.08.
Regarding C3U G19U G21U G33A, the self-cleavage turned out to be 0.14.
Turning to C18A C31G G35U, the self-cleavage came out at 0.03.
Turning to G1U C23A A25U, the self-cleavage worked out at 0.15.
Take A4G A16C G40C: the self-cleavage was found to be 0.02.
For the variant A4U C13A A16G, the self-cleavage worked out at 0.04.
As to G5C A14U C15G, the self-cleavage was determined as 0.
Regarding G7U G22A G29C, the self-cleavage came to 0.
As for G1U C10U G27A G29U, the self-cleavage came out at 0.09.
As for U9C C15U C45U, the figure is 0.03.
As to C13G C18A U32G G40A C46A, the self-cleavage worked out at 0.
Turning to U9C G30U G36U A41G, the self-cleavage was 0.06.
As for G5U G7U G21A G30U, the self-cleavage turned out to be 1.52.
